In the RNAGym collection of RNA variant scans (doi:10.7554/elife.90254):
Read counts are not given, so values of variants with three or more changes are uncertain.

B1: LINE1-full (parent)
chain: UACGUAGGUGGUUUUCCCCUGAUAGUGCUAAGGGGGCCUGGAAGUUUGGACUGGGCAGAGCUCAACACAGCGUGGCAAAGUGGCUGUGGCUAGACUGCCUCUCUGGAUUCCUCGUCACUCAGCAGGGCAUCUCUGAGAGAAAUGCC

Variants of: B1
Experiment: self-cleavage, relative activity (ratio to wild type); higher = more cleavage; in vitro, sequencing; the parent is a self-cleaving ribozyme

**Q.** For A2G U23A A30U C84A, which self-cleavage is on record?
**A.** 0.34

**Q.** With A2G U23C G72A A78G A136G as the variant, how does the self-cleavage read?
**A.** 1.24

**Q.** With A2G U23C U39C A117U as the variant, how does the self-cleavage read?
**A.** 0.39

**Q.** Which self-cleavage does the source give for A2G U26A U132C here?
**A.** 1.84

**Q.** With A2G U26C A31G as the variant, how does the self-cleavage read?
**A.** 1.15

**Q.** Which self-cleavage does the source give for A2G U26C A64U here?
**A.** 0.36

**Q.** Which self-cleavage does the source give for A2G U26C G137U here?
**A.** 1.74

**Q.** With A2G U29C A140U A142G as the variant, how does the self-cleavage read?
**A.** 0

**Q.** Which self-cleavage does the source give for A2G U39A C51A A78G C101U here?
**A.** 1.37

**Q.** Which self-cleavage does the source give for A2G U39A U52C here?
**A.** 0.4

**Q.** For A2G U39C A77G A129G, which self-cleavage is on record?
**A.** 1.15

**Q.** Which self-cleavage does the source give for A2G U39C G40A A67C here?
**A.** 0.19

**Q.** With A2G U45C U62C as the variant, how does the self-cleavage read?
**A.** 0

**Q.** Which self-cleavage does the source give for A2G U46A U47G A129U here?
**A.** 0.8

**Q.** Which self-cleavage does the source give for A2G U46C A78G U85C here?
**A.** 0.37

**Q.** With A2G U46C U47G G125U U134C as the variant, how does the self-cleavage read?
**A.** 0.79

**Q.** With A2G U46C U96C A107G as the variant, how does the self-cleavage read?
**A.** 0

**Q.** With A2G U46G A94C as the variant, how does the self-cleavage read?
**A.** 0.77

**Q.** Which self-cleavage does the source give for A2G U47A A50C U62A U112C here?
**A.** 0

**Q.** Which self-cleavage does the source give for A2G U47A A57G here?
**A.** 1.02

**Q.** For A2G U47A U73A A117G, which self-cleavage is on record?
**A.** 1.36

**Q.** With A2G U47A U104C as the variant, how does the self-cleavage read?
**A.** 0.66

**Q.** With A2G U52C G127U as the variant, how does the self-cleavage read?
**A.** 1.09

**Q.** For A2G U62C G86A U108C U132C, which self-cleavage is on record?
**A.** 0.08

**Q.** With A2G U62C U143C as the variant, how does the self-cleavage read?
**A.** 0.24

**Q.** For A2G U73A A94G, which self-cleavage is on record?
**A.** 1.02

**Q.** With A2G U73A U85C U87A U100C A136G A140G as the variant, how does the self-cleavage read?
**A.** 0

**Q.** With A2G U81A U112C U134C as the variant, how does the self-cleavage read?
**A.** 1.46

**Q.** With A2G U81A U119A as the variant, how does the self-cleavage read?
**A.** 1.4

**Q.** Which self-cleavage does the source give for A2G U81G U119C A142G here?
**A.** 2.04

**Q.** With A2G U85A U132C as the variant, how does the self-cleavage read?
**A.** 0.18

**Q.** For A2G U85G C113U, which self-cleavage is on record?
**A.** 0.28

**Q.** With A2G U87A A140G as the variant, how does the self-cleavage read?
**A.** 0.24

**Q.** For A2G U87A C131A, which self-cleavage is on record?
**A.** 0

**Q.** Which self-cleavage does the source give for A2G U87A C133U here?
**A.** 0.13

**Q.** With A2G U87C A117G as the variant, how does the self-cleavage read?
**A.** 0.61

**Q.** Which self-cleavage does the source give for A2G U87C A124G here?
**A.** 0.92

**Q.** With A2G U91C U96C U134C as the variant, how does the self-cleavage read?
**A.** 0

**Q.** For A2G U91C U119C C146U, which self-cleavage is on record?
**A.** 0

**Q.** For A2G U96C U100A A140G, which self-cleavage is on record?
**A.** 0.3

**Q.** Which self-cleavage does the source give for A2G U100C A124G here?
**A.** 1.53

**Q.** Which self-cleavage does the source give for A2G U100C A141U A142U here?
**A.** 1.09

**Q.** With A2G U100C U104C as the variant, how does the self-cleavage read?
**A.** 1.31

**Q.** For A2G U102C A124G A138U, which self-cleavage is on record?
**A.** 1.45

**Q.** With A2G U102C U134G as the variant, how does the self-cleavage read?
**A.** 0.66

**Q.** For A2G U104C C123A A142C, which self-cleavage is on record?
**A.** 1.16

**Q.** With A2G U104C U109A as the variant, how does the self-cleavage read?
**A.** 1.02

**Q.** Which self-cleavage does the source give for A2G U115C A124G A142G here?
**A.** 0.48

**Q.** For A2G U130C A136G A142G, which self-cleavage is on record?
**A.** 0.59

**Q.** Which self-cleavage does the source give for A2G U130C A141G here?
**A.** 1.15

**Q.** With A2U A22G A64U G82A A124G A142G as the variant, how does the self-cleavage read?
**A.** 0.26

**Q.** For A2U A30U C51U U102C, which self-cleavage is on record?
**A.** 0.5

**Q.** For A2U A43G U47C C56A U100C, which self-cleavage is on record?
**A.** 0.11

**Q.** With A2U A43G U134C as the variant, how does the self-cleavage read?
**A.** 0.74

**Q.** Which self-cleavage does the source give for A2U A65U U81A C98U U100C here?
**A.** 0.13

**Q.** With A2U A65U U119C G139A C145G as the variant, how does the self-cleavage read?
**A.** 0.42

**Q.** Which self-cleavage does the source give for A2U A78U U81C U115A A124G U132C U134C here?
**A.** 2.76

**Q.** For A2U G4A C18U U81C U100C, which self-cleavage is on record?
**A.** 0

**Q.** With A2U G40A A42G as the variant, how does the self-cleavage read?
**A.** 1.35

**Q.** For A2U G60U U109C A124G A129U A142G, which self-cleavage is on record?
**A.** 0.04

**Q.** For A2U G86A A121G, which self-cleavage is on record?
**A.** 0.12

**Q.** Which self-cleavage does the source give for A2U U9A G72U A78G here?
**A.** 1.23

**Q.** With A2U U9A U47A A121U as the variant, how does the self-cleavage read?
**A.** 0.74

**Q.** With A2U U9C A121G as the variant, how does the self-cleavage read?
**A.** 1.43

**Q.** Which self-cleavage does the source give for A2U U12C A107U here?
**A.** 1.24

**Q.** For A2U U13A G21U A64U A67G U132A, which self-cleavage is on record?
**A.** 0.19

**Q.** For A2U U13C A43U A140G U143C, which self-cleavage is on record?
**A.** 0.52

**Q.** For A2U U13C G74A C101A A141G A142G, which self-cleavage is on record?
**A.** 0.69

**Q.** For A2U U13C U62C, which self-cleavage is on record?
**A.** 0.39

**Q.** With A2U U14C U46C as the variant, how does the self-cleavage read?
**A.** 0

**Q.** Which self-cleavage does the source give for A2U U15C C28A U81C U134A here?
**A.** 0.84

**Q.** For A2U U20C A22U U85C, which self-cleavage is on record?
**A.** 0.35

**Q.** Which self-cleavage does the source give for A2U U20C A50G A59U U134C here?
**A.** 1.31

**Q.** With A2U U20C G27A A50G A78G U109C as the variant, how does the self-cleavage read?
**A.** 0

**Q.** Which self-cleavage does the source give for A2U U26A A42G G106A here?
**A.** 0.88

**Q.** With A2U U26C U81G G105A as the variant, how does the self-cleavage read?
**A.** 1.28

**Q.** With A2U U29C U39C U45C A138G as the variant, how does the self-cleavage read?
**A.** 0.48

**Q.** Which self-cleavage does the source give for A2U U39A A42G here?
**A.** 0.39

**Q.** Which self-cleavage does the source give for A2U U45C A79U A121G U143C here?
**A.** 0

**Q.** For A2U U46C A65U G72A A140G, which self-cleavage is on record?
**A.** 0

**Q.** Which self-cleavage does the source give for A2U U52A U134C A142G here?
**A.** 1.03

**Q.** With A2U U85C U102A G125A as the variant, how does the self-cleavage read?
**A.** 0.2

**Q.** Which self-cleavage does the source give for A2U U104A A140G here?
**A.** 0.71
